Article PMC8614738
Results are given in words; binding and its absence hold for the method and conditions named. Some binding calls cover weakened binding; strength is not graded here.

The chains behind the UniProt entries cited, without tags or fusion partners.
UniProt P0CE47: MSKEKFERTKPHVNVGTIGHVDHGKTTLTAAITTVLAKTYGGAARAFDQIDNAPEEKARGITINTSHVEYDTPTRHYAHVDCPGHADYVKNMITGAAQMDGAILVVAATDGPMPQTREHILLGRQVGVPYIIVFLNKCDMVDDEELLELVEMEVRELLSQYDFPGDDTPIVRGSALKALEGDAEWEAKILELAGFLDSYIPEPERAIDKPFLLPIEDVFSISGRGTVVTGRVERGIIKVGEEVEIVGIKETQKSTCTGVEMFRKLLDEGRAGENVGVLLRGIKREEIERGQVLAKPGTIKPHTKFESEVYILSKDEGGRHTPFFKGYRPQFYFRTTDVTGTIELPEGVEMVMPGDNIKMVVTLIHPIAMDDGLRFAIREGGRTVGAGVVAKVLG
UniProt P0A850: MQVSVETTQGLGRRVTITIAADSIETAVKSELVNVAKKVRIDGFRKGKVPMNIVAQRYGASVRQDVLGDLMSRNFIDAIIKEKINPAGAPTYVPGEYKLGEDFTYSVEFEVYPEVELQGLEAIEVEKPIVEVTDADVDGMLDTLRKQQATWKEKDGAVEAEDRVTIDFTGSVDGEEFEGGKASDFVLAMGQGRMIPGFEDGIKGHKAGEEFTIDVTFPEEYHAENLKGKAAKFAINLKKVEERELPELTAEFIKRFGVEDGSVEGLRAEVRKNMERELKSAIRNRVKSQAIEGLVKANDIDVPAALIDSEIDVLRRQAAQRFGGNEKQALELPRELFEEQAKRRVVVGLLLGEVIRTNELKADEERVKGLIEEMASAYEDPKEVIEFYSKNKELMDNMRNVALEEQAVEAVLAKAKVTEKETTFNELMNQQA
UniProt P0A6P1: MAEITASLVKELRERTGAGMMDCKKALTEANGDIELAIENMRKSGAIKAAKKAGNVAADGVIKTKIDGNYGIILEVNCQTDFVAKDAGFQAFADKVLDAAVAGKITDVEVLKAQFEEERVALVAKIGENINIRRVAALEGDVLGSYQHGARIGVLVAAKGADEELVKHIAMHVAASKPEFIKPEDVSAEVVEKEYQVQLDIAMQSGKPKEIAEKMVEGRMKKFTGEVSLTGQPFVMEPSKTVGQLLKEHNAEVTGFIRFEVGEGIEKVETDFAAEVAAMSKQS

Columns and labels:
Assay in all cases: SEC; analytical gel filtration of double mixtures, HiLoad 16/600 Superdex 200, 0.1 mM of each protein pre-incubated at 35 °C for 30 min; 50 mM Tris-HCl, 50 mM NaCl, 1 mM MgSO4, 2 mM DTT, pH 7.4, about 22 °C; fractions on SDS-PAGE; both purified
[1] = target: T1, heat shock protein 33 (Hsp33), reduced zinc-bound (UniProt P0A6Y5)
T1 sequence: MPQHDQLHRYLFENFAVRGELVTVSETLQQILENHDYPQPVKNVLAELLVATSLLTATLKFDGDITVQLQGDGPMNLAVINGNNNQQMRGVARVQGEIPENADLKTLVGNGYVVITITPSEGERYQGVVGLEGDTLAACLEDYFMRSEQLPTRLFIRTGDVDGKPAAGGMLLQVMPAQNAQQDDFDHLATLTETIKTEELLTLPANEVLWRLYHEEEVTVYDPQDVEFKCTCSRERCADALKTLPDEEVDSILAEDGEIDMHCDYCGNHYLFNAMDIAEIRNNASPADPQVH

[2] = target: elongation factor thermo-unstable (EF-Tu), native monomeric (UniProt P0CE47)
[3] = target: oligomeric EF-Tu (^OligoEF-Tu), unfolded (UniProt P0CE47)

Q: Which binding [1] does the source give for “trigger factor (TF) (from UniProt P0A850 1-432)” here?
A: no binding (tested: 0.1 mM of each protein)

Q: “elongation factor thermo-stable (EF-Ts) (from UniProt P0A6P1 1-283)” was tested. Which binding [2] did it give?
A: binds

Q: What about the binding [1] of the same substance?
A: no binding (tested: 0.1 mM of each protein)

Q: Which binding [3] does the source give for “oligomeric EF-Tu (^OligoEF-Tu), unfolded (from UniProt P0CE47 1-394)” here?
A: binds
